Experimental data as given in US20040086994A1.

Biological target: pCS204M-Saccharomyces cerevisiae, C-terminal His-tag S77Y mutant full length ACCase protein, 254.3 kDa protein (Saccharomyces cerevisiae) (UniProt Q00955)
Test: cell-based or functional assay

With avidin (from UniProt P02701 25-152) as the substance, how does the Relative Enzymatic Activity (%) in the 14C isotope exchange ACCase assay, +250 µg/ml avidin read?
Its Relative Enzymatic Activity (%) in the 14C isotope exchange ACCase assay, +250 µg/ml avidin is 2.5%.
